Here are results for 94 sequences from the supplement of paper PMC3334620.

The full ranking holds about 33,000 sequences; the median of “E-score (-0.5 to 0.5)” is about -0.054, and the highest 2% start at about 0.35. The list shows a part of the results.

The assay concerns the target T1, Stb5 (UniProt P38699).
T1 sequence: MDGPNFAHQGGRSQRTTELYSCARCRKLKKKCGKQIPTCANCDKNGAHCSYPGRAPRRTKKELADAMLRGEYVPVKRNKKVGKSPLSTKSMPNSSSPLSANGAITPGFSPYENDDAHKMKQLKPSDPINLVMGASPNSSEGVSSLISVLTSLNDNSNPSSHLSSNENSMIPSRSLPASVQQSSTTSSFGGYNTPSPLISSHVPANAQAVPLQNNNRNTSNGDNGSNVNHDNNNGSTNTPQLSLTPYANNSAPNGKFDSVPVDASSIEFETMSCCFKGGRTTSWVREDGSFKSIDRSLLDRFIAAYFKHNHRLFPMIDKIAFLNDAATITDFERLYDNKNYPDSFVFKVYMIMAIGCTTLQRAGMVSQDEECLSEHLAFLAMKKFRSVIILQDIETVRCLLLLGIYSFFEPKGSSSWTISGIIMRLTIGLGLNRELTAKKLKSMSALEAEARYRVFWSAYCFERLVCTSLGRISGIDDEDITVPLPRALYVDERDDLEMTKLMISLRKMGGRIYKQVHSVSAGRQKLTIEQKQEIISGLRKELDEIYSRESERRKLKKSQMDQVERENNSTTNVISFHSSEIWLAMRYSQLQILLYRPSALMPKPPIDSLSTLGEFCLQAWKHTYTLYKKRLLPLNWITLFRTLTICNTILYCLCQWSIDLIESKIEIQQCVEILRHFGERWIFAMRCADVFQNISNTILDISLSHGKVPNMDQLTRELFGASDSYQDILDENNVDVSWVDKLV
Kind of assay: PBM E-score (8-mer binding enrichment) (E-score (-0.5 to 0.5)); higher = stronger / more preferred TF binding; most listed sequences are background and not binding sites. To be noted: protein concentration: 200 nM; construct: GST-full length. A digest of the protocol: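 Yeast transcription factors, full-length or as DNA-binding domains, were expressed with a GST tag using PURExpress in vitro transcription/translation. At about 100-200 nM they were applied to universal all-10-mer Agilent arrays, double-stranded by primer extension on fresh or once-stripped slides. Fluorescent anti-GST detected bound protein, and masliner normalised the scans. E-scores for ungapped eight-base words, pooled with reverse complements, came from the Universal PBM Analysis Suite.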
In the case of ATAGCCTC, the “PBM E-score” value is 0.0787.

With TGTCAACA, the “PBM E-score” value was -0.114. The same measure for GCCGGATA: 0.331. For GGGTTTCA the value was 0.19. Consider GGTCCCGA, for which the “PBM E-score” value was 0.148. Consider CGCGCTAC, for which the “PBM E-score” value came out at 0.129.

On to AACCAGGA, for which the “PBM E-score” value was -0.116.

In the case of TAGCAAAA, the “PBM E-score” value was 0.0942. For CTACCATA the value was -0.186; for CCTAGACC, -0.255. For GTGACCAC the value was -0.142; for AAAAGCTC, -0.0499; for CGTGTAAA, 0.0599. For CGCCACGC the value was 0.0386. Take CTATAGAG: the “PBM E-score” value came to 0.0204.

For CCTTGGTC, the “PBM E-score” value is -0.161. As for AACTCTAT, the “PBM E-score” value was found to be 0.0202.

With AAATTCGT, the “PBM E-score” value was -0.0784. The same measure for TCCCTGAA: -0.0896; for CTAGTCTA: -0.286.

For AATCTTTA, the “PBM E-score” value amounted to 0.022. CCCGGTAA: the “PBM E-score” value is 0.298. The same measure for ACTACTAA: -0.00102; for ACCAGTTG: -0.178; for GGGTGGGA: -0.0256.

As for AGAAGGCG, the “PBM E-score” value was -0.222. Consider CTGGATCC, for which the “PBM E-score” value worked out at 0.118.

Turning to GAACTCTC, the “PBM E-score” value was -0.21. Consider AATACGGT, for which the “PBM E-score” value is 0.116. The same measure for GATCCTTA: -0.111; for CACCAAAC: -0.19; for ACACGCAT: -0.0874.

As for ATTACTTG, the “PBM E-score” value was -0.126. The same measure for ATGCGCTG: 0.0133; for GAGGAACA: -0.015; for CCCCCCAA: -0.196.

Regarding CCCGTGGA, the “PBM E-score” value was 0.192. For CTGTGACC the value was -0.0498; for GCGCCTAC, 0.00541; for CCGCCGTA, 0.381. ATGCGTTC: the “PBM E-score” value is -0.0705. For AACTAGCT the value was -0.0977. The same measure for GAACGGCC: 0.138.

For the sequence ATCGGAGA, the “PBM E-score” value was determined as 0.33. For AGTGCTAG the value was -0.165; for AAGTCCTA, 0.0926; for ACCCCGAA, 0.37. For AAACAGGG the value was -0.189; for AAAGACGC, -0.0577. Take ACGCTTGC: the “PBM E-score” value was -0.235.

Turning to ACGATACA, the “PBM E-score” value is -0.15.

For the sequence AATCTGTC, the “PBM E-score” value was -0.055.

As for GTGAACAA, the “PBM E-score” value was -0.0543.

In the case of ACTACCCC, the “PBM E-score” value was -0.0759. For TATCTCCA the value was 0.185; for CTATACAC, -0.00519; for CCTGCCAA, -0.251. The same measure for AGAGGACG: -0.135. The same measure for CTACTTGC: 0.015; for AGTGCACG: -0.128; for CGCCGCAA: 0.336. In the case of CGATTGCC, the “PBM E-score” value was determined as 0.0894. For ACTTGACT the value was -0.115; for CGCTCCTA, 0.186; for ATCGCGTC, -0.0404.

Regarding CAATATGC, the “PBM E-score” value is -0.107.

Turning to AGGTTTTA, the “PBM E-score” value came to 0.0721.

As for CCTAGAAA, the “PBM E-score” value came to 0.00815.

For AGCAAAAG, the “PBM E-score” value was -0.24.

Regarding AAGTGTAT, the “PBM E-score” value was -0.268. With CTCGATAC, the “PBM E-score” value is -0.114. With CAGCGGCG, the “PBM E-score” value came out at 0.326. With CCTATCAA, the “PBM E-score” value is -0.0484. The same measure for CGCAGGAA: 0.0192; for TACTTAAA: 0.0015; for AACGCTGA: -0.0905. The same measure for TGTAAAAA: -0.194. For the sequence CAGGATGA, the “PBM E-score” value is -0.267. For AAATTGCC the value was 0.256; for TAAAGTTA, -0.114; for GAGGCTCC, -0.0299. The same measure for CCGCGACC: 0.244.

Consider CCCGGTCG, for which the “PBM E-score” value is 0.269. The same measure for ATGGCTCC: 0.0356; for AAACGTTC: -0.135; for AGCTGAGA: -0.19. Consider AGCTAGAA, for which the “PBM E-score” value is -0.218.

For GGACGACC, the “PBM E-score” value is -0.0946. As for CAGCAACG, the “PBM E-score” value worked out at 0.0141.

For CAAATGAA, the “PBM E-score” value is -0.0783. On to TCCCCCCA, for which the “PBM E-score” value is -0.331. On to CCCGCAGA, for which the “PBM E-score” value stood at 0.251. The same measure for GCCTTGAA: -0.261.

For AATCCTAG, the “PBM E-score” value is -0.0194.
